Test results reported in a compilation of properties of binary mixtures (doi:10.1016/j.molliq.2022.118955).
The densities may have been worked out from excess volumes.

Assay: xn = mol fraction of the nth substance listed
Conditions: 293.15 K, 100 kPa

SMILES: CC[n+]1ccn(C)c1.[I-] + CCO
- mass density (x1 = 0.0208): 831 kg/m3
- mass density (x1 = 0.0766): 929 kg/m3
- mass density (x1 = 0.1141): 997 kg/m3
- mass density (x1 = 0.1621): 1071 kg/m3
- mass density (x1 = 0.3112): 1248 kg/m3
- mass density (x1 = 0.4385): 1355 kg/m3

SMILES: CCO + CCCC[n+]1ccn(C)c1.[I-]
- mass density (x2 = 0): 789 kg/m3

SMILES: CCO + CC[n+]1ccn(C)c1.[I-]
- mass density (x2 = 0): 789 kg/m3

SMILES: CCCC[n+]1ccn(C)c1.[I-] + CCO
- mass density (x1 = 0.009): 811 kg/m3
- mass density (x1 = 0.0198): 832 kg/m3
- mass density (x1 = 0.0676): 925 kg/m3
- mass density (x1 = 0.1006): 976 kg/m3
- mass density (x1 = 0.148): 1042 kg/m3
- mass density (x1 = 0.2076): 1110 kg/m3
- mass density (x1 = 0.2876): 1185 kg/m3
- mass density (x1 = 0.4094): 1274 kg/m3
- mass density (x1 = 1): 1481 kg/m3
